Experimental data taken from the supplement of paper PMC8512760.
Counter-ions that a name gives are not always drawn. This is one part of the list. Many values rest on one well or one pass, so single values are uncertain.
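Also: stably firefly luciferase-GFP labeled cells in 96-well plates, viability read as luciferase photon flux after d-luciferin addition, treated wells normalized to vehicle wells, single-dose high-throughput screen.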

Each compound was assayed on HCC-1187 (assay: cell viability relative to vehicle (% of vehicle); basal-like triple-negative breast cancer lines; higher = less cytotoxic). Details: 10 µM; 72 h.
`CCOC(=O)C(CCc1ccccc1)NC(C)C(=O)N1Cc2ccccc2CC1C(=O)O.Cl` (stereo not given) [Quinapril HCl] showed a cell viability of 88.8. `NC(=O)c1ncn(C2OC(CO)C(O)C2O)n1` (stereo not given) [Ribavirin] gave a cell viability of 104. `CC(=O)Oc1cc2c(s1)CCN(C(C(=O)C1CC1)c1ccccc1F)C2` (stereo not given) [Prasugrel] showed a cell viability of 87.2. Compound `CC(CN1c2ccccc2Sc2ccccc21)N(C)C` (stereo not given) [Promethazine HCl] has a cell viability of 101. With `CCCCCCCCCCCCCCCC(=O)OCC=C(C)C=CC=C(C)C=CC1=C(C)CCCC1(C)C` [Retinyl (Vitamin A) Palmitate] the cell viability was 92.

These compounds were tested on MDA-468 in the same assay as above. Details: 10 µM; 72 h.
`O=CC(O)C(O)C(O)CO` (stereo not given) [Xylose] showed a cell viability of 103. Compound `O=C(NS(=O)(=O)c1ccc(Br)s1)c1ccc(Cl)cc1Cl` [Tasisulam] has a cell viability of 116. `Cn1nnc2c(C(N)=O)ncn2c1=O` [Temozolomide] showed a cell viability of 96.9. `CC(C(=O)O)c1ccc2c(c1)Cc1cccnc1O2` (stereo not given) [Pranoprofen] gave a cell viability of 95.7. `N.N.[Cl][Pt+2][Cl]` [Cisplatin] was tested, and the cell viability was 113. In the case of `COc1ccccc1N1CCN(CCCNc2cc(=O)n(C)c(=O)n2C)CC1.Cl` [Urapidil HCl], the cell viability is reported as 95.4. With `Nc1ncnc2c1ncn2C1OC(CO)C(O)C1O` (stereo not given) [Vidarabine] the cell viability was 92.1. Compound `CCOC(=O)C(CCc1ccccc1)NC(C)C(=O)N1CCCC1C(=O)O.O=C(O)C=CC(=O)O` (stereo not given) [Enalapril Maleate] has a cell viability of 106. `CNC1CCC(c2ccc(Cl)c(Cl)c2)c2ccccc21.Cl` (stereo not given) [Sertraline HCl] showed a cell viability of 97. Compound `CC(Cn1cnc2c(N)ncnc21)OCP(=O)(O)O` (stereo not given) [Tenofovir] has a cell viability of 97. In the case of `CS(=O)(=O)CCNCc1ccc(-c2ccc3ncnc(Nc4ccc(OCc5cccc(F)c5)c(Cl)c4)c3c2)o1.Cc1ccc(S(=O)(=O)O)cc1.Cc1ccc(S(=O)(=O)O)cc1` [Lapatinib Ditosylate], the cell viability is reported as 54.9. `CC(C)CC(NC(=O)C(NC(=O)c1cccc(-c2ccccc2)n1)C(C)O)B(O)O` (stereo not given) showed a cell viability of 17.2. Compound `CN(C)CCC=C1c2ccccc2Sc2ccc(Cl)cc21` [Chlorprothixene] has a cell viability of 112. Compound `Nc1ccn(C2CSC(CO)O2)c(=O)n1` (stereo not given) [Lamivudine] has a cell viability of 109. With `CCCCCCCCOc1ccccc1C(=O)Nc1ccc(C(=O)OCC[N+](C)(CC)CC)cc1.[Br-]` [Otilonium Bromide] the cell viability was 84.9. `CCC(=O)NCCC1CCc2ccc3c(c21)CCO3` (stereo not given) [Ramelteon] gave a cell viability of 86.4. With `O=C(C=Cc1ccc(O)c(O)c1)OC1CC(O)(C(=O)O)CC(O)C1O` (stereo not given) [Chlorogenic acid] the cell viability was 111. Compound `Cc1ccsc1C(=CCCN1CCC[C@@H](C(=O)O)C1)c1sccc1C` [Tiagabine hydrochloride] has a cell viability of 118. `CCOC(=O)CCC(=O)OC1C(OC2C(C)C(OC3CC(C)(OC)C(O)C(C)O3)C(C)C(=O)OC(CC)C(C)(O)C(O)C(C)C(=O)C(C)CC2(C)O)OC(C)CC1N(C)C` (stereo not given) [Erythromycin Ethylsuccinate] gave a cell viability of 108. With `CCCCNc1ccc(C(=O)OCCN(C)C)cc1.Cl` [Tetracaine HCl] the cell viability was 102. `CCOC(=O)n1ccn(C)c1=S` [Carbimazole] gave a cell viability of 107. `CCN(CC)C(=O)C1(c2ccccc2)CC1CN.Cl` (stereo not given) [Milnacipran HCl] was tested, and the cell viability was 110. For `CCc1ccc(CCOc2ccc(CC3SC(=O)NC3=O)cc2)nc1` (stereo not given) [Pioglitazone], the cell viability was 112. Compound `Cl.Fc1ccc(C2CCNCC2COc2ccc3c(c2)OCO3)cc1` (stereo not given) [Paroxetine HCl] has a cell viability of 49.5. `CCOC(=O)c1ccc(OC(=O)CCCCCN=C(N)N)cc1.CS(=O)(=O)O` [Gabexate mesylate] was tested, and the cell viability was 100. For `COC1=CC(=O)C[C@@H](C)[C@]12Oc1c(Cl)c(OC)cc(OC)c1C2=O` [Griseofulvin], the cell viability was 116. `COc1ccc(-c2ccc3cc(C(=O)O)ccc3c2)cc1C12CC3CC(CC(C3)C1)C2` [Adapalene sodium salt] was tested, and the cell viability was 135. Compound `Br.COc1ccc2c3c1O[C@H]1C[C@@H](O)C=C[C@@]31CCN(C)C2` [Galanthamine HBr] has a cell viability of 85.5. For `Cc1cnc(C(=O)O)c[n+]1[O-]` [Acipimox], the cell viability was 88.4. `CC1(COc2ccc3c(c2)ncn3-c2ccc3cccc(N4CCC(N)CC4)c3n2)COC1` showed a cell viability of 30.4. For `Cc1cc(C)cc(OCC2CNC(=O)O2)c1` (stereo not given) [Metaxalone], the cell viability was 105. `CC12CCC(=O)C=C1CCC1C2C(O)CC2(C)C1CCC2(O)C(=O)CO` (stereo not given) [Hydrocortisone] was tested, and the cell viability was 165. In the case of `CC1=C(CC(=O)O)c2cc(F)ccc2C1=Cc1ccc(S(C)=O)cc1` (stereo not given) [Sulindac], the cell viability is reported as 89.8. With `CCC1OC(=O)C(C)C(OC2CC(C)(OC)C(O)C(C)O2)C(C)C(OC2OC(C)CC(N(C)C)C2O)C(C)(OC)CC(C)C(=O)C(C)C(O)C1(C)O` (stereo not given) [Clarithromycin] the cell viability was 92. `CCOc1cc2ncc(C#N)c(Nc3ccc(OCc4ccccn4)c(Cl)c3)c2cc1NC(=O)C=CCN(C)C` [Neratinib (HKI-272)] was tested, and the cell viability was 24.6. With `CCOC(=O)C(CCc1ccccc1)NC(C)C(=O)N1Cc2ccccc2CC1C(=O)O.Cl` (stereo not given) [Quinapril HCl] the cell viability was 112. Work on `NC(=O)c1ncn(C2OC(CO)C(O)C2O)n1` (stereo not given) [Ribavirin] yielded a cell viability of 107. `CC(=O)Oc1cc2c(s1)CCN(C(C(=O)C1CC1)c1ccccc1F)C2` (stereo not given) [Prasugrel] was tested, and the cell viability was 92.1. Compound `CC(CN1c2ccccc2Sc2ccccc21)N(C)C` (stereo not given) [Promethazine HCl] has a cell viability of 111. Compound `CCCCCCCCCCCCCCCC(=O)OCC=C(C)C=CC=C(C)C=CC1=C(C)CCCC1(C)C` [Retinyl (Vitamin A) Palmitate] has a cell viability of 113.
